# According to PubChem BioAssay AID540267 (National Center for Advancing Translational Sciences (NCATS), 2011):
# Among all 340,000 compounds or so, about 530 (0.16%) were called active. The shares of active, inactive and inconclusive entries below differ from those in the screen. Cut-off read from the data, not from the text of the source: active = activity change below about -80%; inconclusive = between about -30% and that limit; inactive = weaker than that.
# Assay: Small Molecules that selectively kill Giardia lamblia: qHTS;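 note: parasites exposed to compound for two days anaerobically before the ATP read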
# Conditions: Giardia lamblia trophozoite viability; at 7.66 µM; stronger effect = lower value
# Procedure, shortened: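 Anaerobic 48 hrs incubation at 37 deg C of 100 trophozoites/well with test compounds; ATPLite 1-Step luminescence, 15-30 min RT, reports cellular ATP as viability.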
# % is set by controls: 0 for no effect and ±100 for the full control effect.
row,Structure (SMILES),activity change
1,CC(C)=CCOc1ccc2ccc(=O)oc2c1,inactive: 1.5%
2,O=C(NCCCN1CCCC1)Nc1cccc2ccccc12,inactive: -24%
3,S=C(Nc1ccc(Oc2ccccc2)cc1)NC1CCCCCC1,inactive: 14%
4,N#Cc1c(NC(=O)CSc2nnnn2C2CCCCC2)sc2c1CCCC2,inactive: -17.7%
5,Cc1onc(-c2c(F)cccc2Cl)c1-c1nnc(-c2cccc3ccccc23)o1,inconclusive: -31% [inhibitor]
6,NCC(O)CN(c1ccccc1)c1ccccc1 (configuration not stated),inconclusive: -31.3% [inhibitor]
7,COc1ccc(SC[C@H](C)CN2CC[C@H](C(C)(C)C)CCC2=O)cc1,inconclusive: -41.1% [inhibitor]
8,Cc1cccc(Oc2ccc(NC(=O)C3CC=CCC3C(=O)O)cc2)c1 (configuration not stated),inconclusive: -31.1% [inhibitor]
9,Cc1ccc2nc(-c3ccc4c(c3)OCCO4)cn2c1,inconclusive: -79.9% [inhibitor]
10,Cc1cc(C(=O)N/N=C/C(Cl)=C/c2ccccc2)c(C)o1,inconclusive: -30% [inhibitor]
11,Cc1nn(CCCC(=O)Nc2c(F)cc(F)cc2Br)c(C)c1[N+](=O)[O-],inconclusive: -58.3% [inhibitor]
12,O=C(/C=C/c1cccc([N+](=O)[O-])c1)c1ccco1,inconclusive: -53.2% [inhibitor]
13,Cc1cccc2nc(CSc3nc4ccc([N+](=O)[O-])cc4[nH]3)c(Br)n12,inactive: -17.3%
14,CCS(=O)(=O)N1CCc2nc(-c3ccccc3)sc2C1,inconclusive: -39.9% [inhibitor]
15,Cc1ccccc1-c1nc2c(=O)n(C)c(=O)nc-2n(C)n1,active: -86.5%
16,CCOC(=O)c1nn(-c2ccccc2)cc1O,inconclusive: -38.2% [inhibitor]
17,COc1ccc(CN(C)CC(=O)c2c(N)n(Cc3ccccc3)c(=O)n(C)c2=O)c(OC)c1,inconclusive: -31% [inhibitor]
18,O=C(CN1C(=O)C2CC=CCC2C1=O)Nc1nc2ccc(F)cc2s1 (configuration not stated),inconclusive: -33.2% [inhibitor]
19,CN1CCN(CCNC(=O)c2cc3c(=O)n(C)c4ccccc4c3n2C)CC1,inconclusive: -30.8% [inhibitor]
20,COCCOC(=O)C1=C(C)NC(=S)NC1c1ccc(OCC(=O)N2CC(C)OC(C)C2)c(OC)c1 (configuration not stated),inconclusive: -44.4% [inhibitor]
21,Cc1cc2sc3ccc(C#CC4(O)CCCCC4)cc3c(=O)c2cc1C,inconclusive: -34.2% [inhibitor]
22,CC(C)(C)C1CCC(OCC(O)CN2CCN(Cc3ccccc3)CC2)CC1 (configuration not stated),inconclusive: -31.8% [inhibitor]
